Experimental data from patent US5763625A, “Synthesis and use of β-lapachone analogs” (priority 1995, dated 1998).

Assays:
[1] = test system: unirradiated U1-Mel cells; assay: Toxicity to unirradiated confluence-arrested U1-Mel cells
[2] = test system: human radioresistant melanoma (U1-Mel) cells; assay: Radiosensitization of X-irradiated confluence-arrested U1-Mel cells (survival); conditions: at 10 times the dose of the 3-allyl-β-lapachone

SMILES	optimal concentration range with relatively little toxicity to unirradiated cells [1] [µM]	drug enhanced radiation value (DER value) [2]
C=CCC1CC2=C(OC1(C)C)c1ccccc1C(=O)C2=O (centres unmarked)	4 to 40	–
CC[C@@]1(O)C(=O)OCc2c1cc1n(c2=O)Cc2cc3c(CN(C)C)c(O)ccc3nc2-1 [Topotecan]	–	2.7
